Results: article PMC4336329 (PLoS ONE, 2015)
About 2,200 (0.71%) of roughly 310,000 compounds showed an effect of 50% or more. Effects have a minus sign here. This is one part of the list.

These molecules were tested against human ether-à-go-go-related gene (hERG) potassium channel (human, UniProt Q12809) (assay: primary screen, population patch clamp on CHO cells stably expressing hERG).
human ether-à-go-go-related gene (hERG) potassium channel, sequence (Q12809 whole entry, looked up): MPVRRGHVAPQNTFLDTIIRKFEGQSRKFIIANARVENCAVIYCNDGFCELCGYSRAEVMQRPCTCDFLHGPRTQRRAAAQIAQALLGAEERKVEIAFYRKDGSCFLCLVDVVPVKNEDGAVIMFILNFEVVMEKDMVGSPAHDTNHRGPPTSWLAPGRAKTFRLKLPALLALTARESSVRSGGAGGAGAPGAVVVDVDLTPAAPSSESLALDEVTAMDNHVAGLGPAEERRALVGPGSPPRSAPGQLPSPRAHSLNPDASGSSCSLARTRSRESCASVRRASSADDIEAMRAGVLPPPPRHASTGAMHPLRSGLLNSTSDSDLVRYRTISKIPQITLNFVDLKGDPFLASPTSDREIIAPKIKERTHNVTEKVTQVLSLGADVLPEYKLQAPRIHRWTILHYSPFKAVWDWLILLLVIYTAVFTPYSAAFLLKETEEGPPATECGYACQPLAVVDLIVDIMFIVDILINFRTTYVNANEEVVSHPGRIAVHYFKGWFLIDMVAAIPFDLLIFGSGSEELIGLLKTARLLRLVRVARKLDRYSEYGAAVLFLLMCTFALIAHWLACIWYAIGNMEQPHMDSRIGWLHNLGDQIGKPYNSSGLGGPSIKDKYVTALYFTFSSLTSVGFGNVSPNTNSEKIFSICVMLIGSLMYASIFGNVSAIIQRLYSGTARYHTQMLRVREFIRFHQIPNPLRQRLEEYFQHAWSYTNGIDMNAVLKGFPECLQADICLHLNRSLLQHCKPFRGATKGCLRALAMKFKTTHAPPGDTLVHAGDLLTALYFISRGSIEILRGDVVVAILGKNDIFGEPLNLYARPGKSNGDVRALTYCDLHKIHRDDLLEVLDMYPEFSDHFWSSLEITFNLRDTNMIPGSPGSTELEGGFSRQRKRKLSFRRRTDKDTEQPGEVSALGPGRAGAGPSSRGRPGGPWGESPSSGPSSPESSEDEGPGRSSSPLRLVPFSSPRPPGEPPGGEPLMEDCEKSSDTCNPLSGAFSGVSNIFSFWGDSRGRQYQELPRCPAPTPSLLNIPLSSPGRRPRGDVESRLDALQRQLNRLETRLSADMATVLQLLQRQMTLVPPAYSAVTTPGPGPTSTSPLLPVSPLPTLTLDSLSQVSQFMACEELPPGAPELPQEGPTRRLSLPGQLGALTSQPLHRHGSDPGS

| Compound | hERG current change (%, negative = inhibition) at 1uM |
| --- | --- |
| COc1ccc(S(=O)(=O)n2ccc(-c3ccc4c(c3)CCC(C)(C)O4)n2)cc1 | 5.81% |
| CC(Oc1ccccc1)C(=O)NC1CC(C)(C)NC(C)(C)C1 (stereo not drawn) | 9.76% |
| COc1cccc(CNC(=O)CCCC(=O)Nc2cccc([N+](=O)[O-])c2)c1 | 0.52% |
| O=C(NC(=S)NC1CCCCCCCCCCC1)c1cccnc1 | 5.03% |
| COCCn1c(SCC(=O)NCCc2ccccc2)nnc1-c1ccco1 | -3.3% |
| COc1cc(C)c(CNc2cc(C)cc(C)c2)cc1C | 9.11% |
| CC(C)(C)c1cccc(P(=O)(c2ccccc2)c2ccccc2)c1O | 11.7% |
| CC(C)c1ccccc1OCC(O)CN1CCN(S(=O)(=O)c2ccc([N+](=O)[O-])cc2)CC1.O=C(O)C(=O)O (stereo not drawn) | 5.64% |
| COC(=O)c1sc(S(=O)(=O)N2CCCCC2)c(C(=O)OC)c1C | 0.311% |
| COc1ccc(/C=C2/SC(=S)N(NS(=O)(=O)c3ccc(C)cc3)C2=O)cc1 | 22.1% |
| CC(C)CC(=O)Nc1cccc(-c2cn3ccsc3n2)c1 | 8.82% |
| CN(C)c1nc(N(C)C)nc(N(C#N)CCCl)n1 | -0.143% |
| CCN(CC)CCn1c(SCC(=O)NCc2ccccc2)nc2c(sc3ccccc32)c1=O | 0.187% |
| COc1cccc(C(=O)CC(C(=O)O)c2ccc(F)cc2)c1 (stereo not drawn) | 2.31% |
| O=C1/C(=C/c2cccnc2)Oc2cc(OS(=O)(=O)c3ccccc3)ccc21 | -0.883% |
| COc1ccc(-c2c(C)n([O-])c3c([n+]2=O)CCCC3)cc1OC | 11.5% |
| CN(C)S(=O)(=O)c1ccc(-c2cn3ccccc3n2)cc1 | 8.62% |
| O=C(c1ccccc1F)n1c2c(c3ccccc31)CCCC2 | 20.6% |
| CCN(C(=O)CSc1nnc(-c2ccccc2)o1)c1c(N)n(Cc2ccccc2)c(=O)[nH]c1=O | 7.93% |
| NC(=O)CC(NC(=O)c1ccccc1)c1ccc(NCCN2CCCCC2)c([N+](=O)[O-])c1 (stereo not drawn) | 8.25% |
| CC1C2(C)OCC(C#N)(C(=N)O2)C1(C#N)C#N (stereo not drawn) | 17.1% |
| Cn1c(SCC(=O)NC2CCCCC2)nnc1-c1cc2cc(Cl)ccc2o1 | 13.8% |
| CC(=O)OCC(=O)Nc1ccc(N=Nc2ccccc2)cc1 | 6.53% |

| Compound | hERG current change (%, negative = inhibition) at 1uM |
| --- | --- |
| COc1ccc(NC(=O)CSCCc2ccccn2)cc1OC | 19.3% |
| Cc1n[nH]c(C)c1N=Nc1cc(Cl)ccc1Cl | 12.8% |
| COc1ccccc1N1CCN(Cc2cc3c(cc2Br)OCCO3)CC1 | 10.3% |
| C=CCc1cccc(CNc2ccc(S(=O)(=O)Nc3nccnc3OC)cc2)c1O | 14.4% |
| CN1CCN(S(=O)(=O)c2ccc3c(c2)NC(=O)CS3)CC1 | 10.6% |
| COc1ccc(C2CC(c3ccccc3)=NN2S(=O)(=O)c2ccc(C)cc2)c(OC)c1 (stereo not drawn) | 0.771% |
| COc1ccc(CNc2ccc(S(N)(=O)=O)cc2)cc1 | -2.4% |
| Cc1ccc(S(=O)(=O)N2CCOCC2)cc1C(=O)N1CCOCC1 | 19% |
| COc1cc(/C=N/NC(=O)c2cccs2)ccc1O | 7.68% |
| O=C(CSc1ncn[nH]1)Nc1c(F)cc(F)cc1Br | 11.5% |
| CC(=O)c1cccc(NC(=O)CSc2nnc(-c3cccnc3)o2)c1 | -16% |
| O=C(NCC1(N2CCOCC2)CCCCC1)c1cccc(S(=O)(=O)N2CCc3ccccc3C2)c1 | 9.1% |
| CCN(CC)CCN1C(=O)C2C3c4ccccc4C(c4ccccc43)C2C1=O (stereo not drawn) | 8.61% |
| Cc1cc(CN2CCN(CCC#N)CC2)c(O)c(C2(C)CCCCC2)c1 | 10.7% |
| CCOc1ccccc1N1C(=O)CC(Nc2ccc(N3CCOCC3)cc2)C1=O (stereo not drawn) | 3.85% |
| COc1ccccc1NC(=O)N(Cc1ccccc1)C1=NCC(C)S1 (stereo not drawn) | 12.7% |
| Cn1cccc1C(C#N)c1ccccc1C#N (stereo not drawn) | 7.1% |
| CC(C)(C)OC(=O)NCCCC1=CC2=CC(=O)C(C)(OC(=O)c3ccc(Cl)nc3)C(=O)C2=CO1 (stereo not drawn) | 5.19% |
| CCC12CN3CC(CC)(CN(C1)C3c1ccc([N+](=O)[O-])o1)C2=O (stereo not drawn) | -5.81% |
| CC1=C(C(=O)OCc2ccc([N+](=O)[O-])cc2)N2C(=O)C(NC(=O)Cc3ccccc3)C2SC1 (stereo not drawn) | 17.2% |
| CCOc1ccc2nc(SCC)[nH]c2c1.Cl | 6.91% |
| CN1CCN(c2ccc(S(=O)(=O)N3CCCCC3)cc2NC(=O)c2ccc3ccccc3c2)CC1 | 2.46% |
